Consider 39 molecules from PubChem BioAssay (NCI).

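Grown in 96-well plates, cells were treated for 48 hours with each compound at five concentrations. Insufficient inhibition: endpoint recorded as highest concentration tested. GI50 = concentration required for 50% inhibition of growth. Definition used: TGI = concentration required for complete inhibition of growth.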

The test system of this test is NCI-H322M lung. Description: growth of human tumour cells (NCI), 48 h.
In the case of `O=C1Nc2cc(Cl)ccc2/C1=C\c1c(-c2ccc(F)cc2)nc2ccccn12`, the GI50 is 2.72 µM and the TGI was found to be 23.8 µM. `CN1CCN(C(=S)N(C(=O)c2cccs2)C2CCCCC2)CC1` registered a TGI greater than 100 µM. `CN1C2CCC1CN(CCOC(c1ccc(F)cc1)c1ccc(F)cc1)C2` displayed a TGI greater than 100 µM. Still for that read-out and setting: to `Cc1ccc([N+](=O)[O-])cc1S(=O)(=O)Nc1ccc(C(=O)/C=C/c2cccs2)cc1` belongs 53.1 µM; to `C=C1C(O)C23CCC4C(C(=O)O)(C(=O)O)CC(OC5OC(CO)C(O)C(OC(=O)CCc6ccccc6)C5NC(=O)CC(C)C)CC4(C)C2CCC1(O)C3` (centres undefined), greater than 100 µM. `C/C(=N\NC1=NCCN1)c1cn(C2=NCCN2)nc1C` yielded a TGI greater than 100 µM. On to `COc1ccc2[nH]c(S(=O)(=O)N3CC(CCl)c4ccc(N)cc43)cc2c1` (centres undefined), for which the TGI was 44.8 µM. The molecule `Cc1ccc([N+](=O)[O-])cc1S(=O)(=O)Nc1ccc(C2=NN(C(=O)c3ccccc3)C(c3ccccc3)C2)cc1` (centres undefined) had a TGI greater than 100 µM. In the case of `CN1CCN(CCCOc2ccc3nc(Nc4cc(Cl)cc(Cl)c4)ccc3c2)CC1`, the GI50 was 1.95 µM and the TGI stood at 3.85 µM.

`C=C1CCC2C(C)(CO)C(O)CCC2(C)C1CC(O)/C(=C/CO)C(=O)O` (centres undefined) returned a TGI greater than 100 µM.

In the case of `Cc1ccc(S(=O)(=O)N/N=C2\CC3C4C=CC3C2C4)cc1` (centres undefined), the TGI was greater than 100 µM.

As for `COc1ccc(NC(=O)/C(Cc2nc3ccccc3[nH]c2=O)=N\O)c(OC)c1`, the TGI is greater than 100 µM.

For the molecule `Nc1nc(/C=C\c2ccc([N+](=O)[O-])cc2)nc(N2CCN(c3ccccc3)CC2)n1`, the GI50 was 20.8 µM and the TGI stood at 60.6 µM. The matching figures for `CCOC(=O)N1C/C(=C/c2ccc(F)cc2)C(=O)/C(=C/c2ccc(F)cc2)C1`: 4.47 µM and 18.4 µM. Take `Cc1cc2ncn(C3CCCO3)c2cc1C` (centres undefined): the TGI is greater than 100 µM. Same read-out and setting: to `CC1(C)OC2C(CO)OC(n3cnc(N)nc3=O)C2O1` (centres undefined) belongs greater than 100 µM.

The molecule `COc1ccc2cc1Oc1ccc(cc1)CC1c3cc4c(cc3CCN1C)Oc1c(OC)cc3c(c1O4)C(C2)N(C)CC3` (centres undefined) gave a TGI of 15 µM.

As to `N#C/C(=C\c1ccccc1)c1nc(-c2cc3ccccc3oc2=O)cs1`, the TGI is greater than 100 µM.

Molecule `COc1cccc(/C=C2\CCC(CCN(C)C)(C3=CCCC3)C2=O)c1` (centres undefined) had a TGI of 30.2 µM. Same read-out and setting: the same measure for `COC(=O)c1cc(OC(C)=O)c2c(OC)ccc(OC)c2c1`: greater than 100 µM. On to `CCOC(=O)C(=O)Nc1ccc(C)c(C)c1`, for which the TGI is greater than 100 µM. For the molecule `CN1CCN([C@H]2C[C@H]3[C@@H]4CC=C5C[C@@H](N6CCCC6)CC[C@]5(C)[C@H]4CC[C@]3(C)[C@H]2O)CC1`, the TGI was greater than 100 µM.

As for `CN(Cc1cnc2c(n1)C(N)=NN(N)N2)c1ccc(C(=O)NC(CCP(=O)(O)O)C(=O)O)cc1` (centres undefined), the TGI is greater than 100 µM. Same read-out and setting: to `CCCc1onc(CCC(=O)N(Cc2ccccc2)Cc2ccccc2)c1CC` belongs greater than 100 µM. On the same count and under the same terms, the same measure for `CN1C2CCC1CC(CC(=O)NC(c1ccc(F)cc1)c1ccc(F)cc1)C2` (centres undefined): greater than 100 µM. On the same count and under the same terms, to `C=C1OC(=O)[C@]2([C@@H](/C=C/C)C=CC(=O)[C@H]2O)[C@@H]1O` belongs greater than 100 µM. For the molecule `Fc1cnc(NC2CC2)nc1-c1cnc2ccc(N3CCOCC3)cn12`, the GI50 was 0.294 µM and the TGI came to 15.5 µM.

Turning to `CCOC(=O)[C@H]1O[C@@H]1C(=O)N[C@@H](CC(C)C)C(=O)NCCc1ccc(O)cc1`, the GI50 is greater than 100 µM and the TGI was greater than 100 µM. Take `O=[N+]([O-])c1ccccc1S(=O)(=O)c1cc(O)cc2c1NCCC2`: the TGI is 32.1 µM. Still for that read-out and setting: to `Clc1ccc(CSc2ncnc3c2ncn3C2CCCCO2)cc1` (centres undefined) belongs greater than 100 µM. For the molecule `CCCS(=O)(=O)Nc1ccc(F)c(C(=O)c2c[nH]c3ncc(Cl)cc23)c1F`, the GI50 was 6.8 µM and the TGI was greater than 100 µM. The matching figures for `Nc1nc2c(c3ncccc13)C(c1cccc(Br)c1)Cc1ncccc1-2` (centres undefined): 3.46 µM and 36.1 µM. Turning to `COc1ccccc1/C=C1\Sc2scc(-c3ccc(O)c(O)c3)[n+]2C1=O`, the TGI was greater than 100 µM. Take `C/C(=N\O)c1ccc(Nc2nc3ccccc3c3occc23)cc1`: the TGI worked out at 67.5 µM. On to `COc1ccc(C(=O)c2cc(OC)c3c(c2)OCO3)cc1O`, for which the GI50 is 2.11 µM and the TGI is greater than 100 µM.

On to `O=C(N/N=C/c1ccccc1O)c1ccccc1O`, for which the GI50 is 2.85 µM and the TGI was greater than 100 µM. Regarding `O=c1cc(-c2ccccc2)oc2cc(Oc3nnnn3-c3ccccc3)ccc12`, the TGI was greater than 100 µM. Same read-out and setting: the same measure for `Cc1ncc([N+](=O)[O-])n1CCNC(=O)CCCn1ccnc1[N+](=O)[O-]`: greater than 100 µM. The same measure, in the same setting: to `O=C(c1cc(Cl)ccc1Cl)N1CCN(c2cccc(Cl)c2)CC1` belongs 93.4 µM.
